# Out of some 410,000 compounds screened, about 530 (0.13%) were called active. Inconclusive means that the source gave no clear call. Such entries were picked first, then a sample of the others. Calls come from the whole dose curve; as a rule, active = well fitted inhibition curve with a large enough effect; inconclusive = small, poorly fitted or top-dose-only effect, or another doubt; inactive = no such curve, though single readings can be large or run the other way. Potencies beside an inconclusive call are fits to weak or partial responses and may not hold up.
# Test: qHTS of GLP-1 Receptor Inverse Agonists: Cytotox Screen
# Settings: HEK293 cAMP-luciferase reporter cells, luminescence, 24 h; activity change, negative = inhibition: at 38.3 µM (top of the series) unless noted
# Procedure, shortened: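 1536-well qHTS counterscreen of the MLSMR; 200 cells/uL, 12 h pre-incubation, 23 nL cpd, 24 h at 37 deg C 5% CO2, luciferase detection reagent, 12 min RT, luminescence. Inhibition = undesired.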
# % is set by controls: 0 for no effect and ±100 for the full control effect; potency is the fitted concentration of half-maximal effect.
SMILES,Potency,"activity change, negative = inhibition"
O=c1ccc2c(-c3ccccc3S(=O)(=O)O)c3ccc(O)c(O)c3oc-2c1O,"inconclusive: 12.6 µM [inhibitor, single point]",–
c1ccc(COC(CN2CCCCCC2)CN2CCCCCC2)cc1,"inconclusive: 7.08 µM [inhibitor, partial curve, poor fit]",–
Cc1ccc(-n2nnc3c(=O)oc4ccccc4c32)cc1,"inconclusive: 7.94 µM [inhibitor, partial curve, poor fit]",–
COc1cc(OC)c(/C=N/NC(N)=S)cc1Br,"inconclusive: 11.2 µM [inhibitor, partial curve, poor fit]",–
Cc1ccc(N(CC(O)CN2CCCCC2)S(=O)(=O)c2ccccc2[N+](=O)[O-])cc1 (stereo unspecified),–,inactive: 0.599% [at 7.66 µM]
CN(C)c1ccc(C(C[N+](=O)[O-])c2c(N)n(C)c(=O)n(C)c2=O)c(F)c1C#N (stereo unspecified),"inconclusive: 12.6 µM [inhibitor, single point]",–
CCCCNC(=S)N(CCO)Cc1cc2cc3c(cc2[nH]c1=O)OCCO3,"inconclusive: 0.251 µM [inhibitor, full curve, poor fit]",–
COc1cccc(CNCc2ccc(OC)c3ccccc23)c1OC,–,inconclusive: -55.8% [inhibitor]
CC(Sc1cccc[n+]1[O-])c1ccccc1 (stereo unspecified),"inconclusive: 2.24 µM [inhibitor, partial curve, poor fit]",–
CCOC(=O)c1oc2ccccc2c1NC(=O)c1cc(OC)cc(OC)c1,"inconclusive: 11.2 µM [inhibitor, partial curve, poor fit]",–
O=C(NCCC1=CCCCC1)NC12CC3CC(CC(C3)C1)C2,inactive,–
CC1CCN(S(=O)(=O)c2ccc(N/N=C(/C#N)C(N)=O)cc2)CC1,"inconclusive: 12.6 µM [inhibitor, partial curve, poor fit]",–
Cc1ccc(-n2c(=O)c3c(c4cc(C)ccc4n3C)n(CC(=O)NCC3CCCO3)c2=O)cc1 (stereo unspecified),inactive,–
Cc1ccc(NC(=O)CSc2nncn3c2cc2sccc23)cc1F,inactive,–
CCC(=O)Nc1cccc(NC(=O)c2ccc3c(c2)OCCO3)c1,"inconclusive: 8.91 µM [inhibitor, partial curve, poor fit]",–
CSc1ccc(CN2CCC2(C)C(=O)Nc2cccc(NS(C)(=O)=O)c2)cc1 (stereo unspecified),inactive,–
Cc1ccc(C23CC4CC(CC(NC(=O)NCCN(C)C)(C4)C2)C3)cc1,"inconclusive: 28.2 µM [inhibitor, single point]",–
CNc1ccc(/C=C/C(=O)c2cccc3ccccc23)cc1[N+](=O)[O-],"inconclusive: 10 µM [inhibitor, single point]",–
Cc1cc(NC(=O)c2cccs2)n(-c2nc3ccccc3[nH]2)n1,"inconclusive: 12.6 µM [inhibitor, single point]",–
O=C(c1cccc(S(=O)(=O)NCc2ccccc2)c1)N1CCN(c2ccccc2Cl)CC1,"inconclusive: 10 µM [inhibitor, partial curve, poor fit]",–
CC1=C(/C=C/C(C)=C/C=C/C(C)=C/C(=O)Nc2ccc(O)cc2)C(C)(C)CCC1,"inconclusive: 7.94 µM [inhibitor, partial curve, poor fit]",–

SMILES,Potency,"activity change, negative = inhibition"
COc1ccc(S(=O)(=O)N2CCCCC2)cc1NC(=O)CCOc1cc(C)ccc1C,inactive,–
Nc1[nH]n2c(=O)c3c(nc2c1N=Nc1ccc(Cl)cc1)CCCC3,inactive,–
COc1ccc(OC)c(C2=NOC(C(=O)N3CCCc4ccccc43)C2)c1 (stereo unspecified),"inconclusive: 0.501 µM [inhibitor, full curve, poor fit]",–
O=C(NC1CCCCC1)C(c1ccc2ncccc2c1)N(Cc1ccc(F)cc1)C(=O)c1ccc2c(c1)OCCO2 (stereo unspecified),"inconclusive: 11.2 µM [inhibitor, partial curve, poor fit]",–
CCCCN(CC)C(=O)Cn1c(=O)sc2ccccc21,–,inconclusive: -35.1% [inhibitor]
CS(=O)(=O)C1=NSC2=NC(=O)/C(=C\c3cccn3-c3ccccc3Cl)C(=N)N21,"inconclusive: 7.94 µM [inhibitor, partial curve, poor fit]",–
CCc1ccccc1N1CC(c2nc3ccccc3n2CCOc2ccc(Cl)c(C)c2)CC1=O (stereo unspecified),"inconclusive: 3.98 µM [inhibitor, partial curve]",–
CCCC(NCC(O)COc1ccc(-c2ccccc2)cc1)c1ccccc1 (stereo unspecified),"inconclusive: 28.2 µM [inhibitor, single point]",–
COc1ccc(/C=N/NC(=O)c2cccnc2)cc1CN1CCc2ccccc2C1,"inconclusive: 22.4 µM [inhibitor, single point]",–
CCCOC(=O)c1ccc(Oc2c(-c3ccc(OCC)cc3O)n[nH]c2C)cc1,"inconclusive: 28.2 µM [inhibitor, single point]",–
Cn1cc(CN2CCc3c([nH]c4ccccc34)C2C(C)(C)C)cn1 (stereo unspecified),"inconclusive: 28.2 µM [inhibitor, single point]",–
C/C(=N\NC(=S)NC1CCCCC1)c1cccc(Br)c1,"inconclusive: 2.82 µM [inhibitor, full curve, poor fit]",–
Cc1cc(/C=N/NC(N)=S)c(C)n1-c1ccc(Cl)cc1,"inconclusive: 10 µM [inhibitor, partial curve, poor fit]",–
Cc1nc2c(-c3ccccc3)c(C)nn2c(C)c1CCC(=O)NCCc1ccccc1,inactive,–
CCOC(=O)c1cccc(NC(=O)CCc2nc(-c3ccccc3F)no2)c1,inactive,–
COc1cc(C2C=C(C34CC5CC(CC(C5)C3)C4)NC(=S)N2)cc(OC)c1OC (stereo unspecified),"inconclusive: 5.01 µM [inhibitor, full curve, poor fit]",–
Cc1cc(C(=O)Nc2cccc(-c3ccc(N4CCOCC4)nn3)c2)ccc1[N+](=O)[O-],"inconclusive: 10 µM [inhibitor, single point]",–
CC(Sc1ccccc1F)C(=O)Nc1ccc2c(c1)OCCO2 (stereo unspecified),inactive,–
Cc1nc([N+](=O)[O-])c(Br)n1CC(=O)c1ccccc1,"inconclusive: 22.4 µM [inhibitor, single point]",–
CCOCCCN1C(=O)CN(C2CCC(C)CC2)C(=O)C1c1ccc(C)cc1 (stereo unspecified),inactive,–
